# Laboratory results reported in the RNAGym collection of RNA variant scans (doi:10.7554/elife.90254).
# The source gives no read counts; variants with many changes may rest on few reads.
# B1: LINE1-mini (parent)
# chain: GGCAGAGCUCAACACAGCGUGGCAAAGUGGCUGUGGCUAGACUGCC
# Variants of: B1
# Assay: self-cleavage, relative activity (ratio to wild type); higher = more cleavage; in vitro, sequencing; the parent is a self-cleaving ribozyme
row,Variant,self-cleavage
1,A14U G27U C31U G40C,0.09
2,C10G G36U C37U,0.03
3,G2C G21C C23U G29U,0.3
4,C8A G29U G30U A39U,0.19
5,G2C G5C A16G,0.03
6,G1U G5A G40U C45U,0.05
7,C10A G22C U32C U34C,0.08
8,G17U C18A G29U,0.21
9,A4G U9G G22U A26U,0.09
10,A14C C23G U28G U32A C37G,0
11,C8U U20G G22U C37U,0.05
12,A16U G21U U38G,0.02
13,A16G C18G C45U,0.07
14,A6C C8U A14C C15G,0.03
15,A4G C15G G36C,0.07
16,A6U A12U U28G,0.03
17,C18G U43C C46U,0.02
18,G21A G27A C45A,1.32
19,A6U C13A C31U G35A,0.1
20,G1U G7U C18U,0.02
21,A6U U28A G29C G30U,0.17

row,Variant,self-cleavage
1,C8A G21C U38A A41C,0.2
2,C10A A12C A16C G19C C37A G40A,0
3,C13A C23A U43A,0.05
4,G1U G35U G40A,0.05
5,C13U U20C U34A C37A,0.05
6,G5U A16C G30U U32G U34G,0.02
7,A24U G33A G36U C37G C42A,0.07
8,G1C A4C C15U C18A A26G G36U U38C,0.05
9,A6U C10A G21U G36A A39U,0
10,U9G A16U A26C,0.08
11,C8A G29A U32A C37A,0.03
12,A14C G17A G36C,0.01
13,G7A A24U A25C,0.14
14,G21C C23G G27C G29U G33U A41G C45U,0.12
15,U20G U28C G33C,0.09
16,G21C C23A G29U G30C,0.45
17,C8U U9C A24U,0.11
18,G1A C18U C23G G27C A39C,0.04
19,G2A A14C G30A C42A U43C G44C,0.13
20,A11C C18G C31U G35C,0.01
21,C8A C42A C45G,0.39

row,Variant,self-cleavage
1,A11C G27U G40C C46U,0.02
2,A11C C13U G27U,0.04
3,G1A A6U A25C,2.89
4,C3G A12U C23U G36A,0.09
5,A12U G22A C42G,0.02
6,G1C A14U U43A,0
7,C10A A11G G29U G40U C42U,0.01
8,G21A A26U U38A,2.46
9,A39G C42U C45U C46A,0.11
10,G7A C8G U9C C10U A11C G17A G19U,0.02
11,C3G G19C G27A U32A,0.62
12,A11C A25C A41G,0
13,C10A A14C G29U G33A,0.02
14,A6C G29U A41G,0.73
15,A4G G5U C15A G29U,0.11
16,A11C A14U G30U,0.04
17,C13A C31U G40U,0.3
18,C8A C37U C42U,0.07
19,C8G G29A A39C,0.12
20,A11U G30A U32C G36U G44U,0.02
21,A6U G21A G30A U38C,0.73

row,Variant,self-cleavage
1,A11U G33U A41U C46U,0.01
2,A11C C13G C42U,0.04
3,A16G G21A G33U,0.07
4,G17A U32C G36C C37G G40C,0.02
5,C23U G30A U38A G40C,0.03
6,G2U A4C A11U A14C,0.02
7,A6U G17U A25G,0.01
8,C13G G19U G22A G29A G40C C42A,0.07
9,A4G C10A U20G,0.04
10,C3A G17A U20G C23A,0.08
11,C13U A16U G19A G27A,0.09
12,A12U C31A U32A G33C C46A,0.04
13,U20A G21A A24G G40A C46G,0.05
14,A6G C23G G27U,0.04
15,C13A G17A U38C,0.02
16,A16U G17A C23U A26G,0.01
17,A6C A25U G36C,0.07
18,C10G G33A U43A,0.02
19,G1C C15A G17A C31G G33A,0.01
20,A4U A6U C8A G21A,0.54
21,A6G A26C G36A U38A G40U,0.17
